# Several values for one entry are separate records, joined by “and”; a condition that tells them apart may be missing. Identical values can stand only once. Among all 220,000 compounds or so, about 5,700 (2.6%) were called active. Inconclusive results, whose numbers are uncertain, are shown with a selection of clear calls. The call rests on the fitted dose curve; in most records, active means well fitted inhibition curve with a large enough effect; inconclusive means small, poorly fitted or top-dose-only effect; inactive means no such curve, though single readings can be large or run the other way. A potency beside an inconclusive call is a rough fit, not a confirmed value.
# Biological target: Lysine-specific demethylase 5B (Homo sapiens) (UniProt Q9UGL1)
# Test: Primary screen for KDM5B Histone Demethylases FDH-coupled qHTS; further: nearly all actives have a fitted effect of over 70% in size; on activity change, negative = inhibition: 0% is about no effect
# Conditions: FDH-coupled NADH fluorescence (FDH is formaldehyde dehydrogenase); activity change, negative = inhibition: at 57.7 µM (top of the series) unless noted
# How it was run: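 KDM5BΔAP (200 nM final) in 50 mM HEPES pH 7.5, 0.01% Tween-20 was preincubated 10 min at RT with compound over a concentration range. Substrate mix (H3K4me3 12.5 µM, α-KG 25 µM, Fe²⁺, ascorbate, NAD⁺, FDH) was added, and NADH fluorescence change over 30 min gave dose-response curves.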
# Potency means the concentration at half of the fitted maximal effect; tags describe the fitted curve by direction and shape.
# Sequence of UniProt Q9UGL1 (Q9UGL1 whole entry, looked up): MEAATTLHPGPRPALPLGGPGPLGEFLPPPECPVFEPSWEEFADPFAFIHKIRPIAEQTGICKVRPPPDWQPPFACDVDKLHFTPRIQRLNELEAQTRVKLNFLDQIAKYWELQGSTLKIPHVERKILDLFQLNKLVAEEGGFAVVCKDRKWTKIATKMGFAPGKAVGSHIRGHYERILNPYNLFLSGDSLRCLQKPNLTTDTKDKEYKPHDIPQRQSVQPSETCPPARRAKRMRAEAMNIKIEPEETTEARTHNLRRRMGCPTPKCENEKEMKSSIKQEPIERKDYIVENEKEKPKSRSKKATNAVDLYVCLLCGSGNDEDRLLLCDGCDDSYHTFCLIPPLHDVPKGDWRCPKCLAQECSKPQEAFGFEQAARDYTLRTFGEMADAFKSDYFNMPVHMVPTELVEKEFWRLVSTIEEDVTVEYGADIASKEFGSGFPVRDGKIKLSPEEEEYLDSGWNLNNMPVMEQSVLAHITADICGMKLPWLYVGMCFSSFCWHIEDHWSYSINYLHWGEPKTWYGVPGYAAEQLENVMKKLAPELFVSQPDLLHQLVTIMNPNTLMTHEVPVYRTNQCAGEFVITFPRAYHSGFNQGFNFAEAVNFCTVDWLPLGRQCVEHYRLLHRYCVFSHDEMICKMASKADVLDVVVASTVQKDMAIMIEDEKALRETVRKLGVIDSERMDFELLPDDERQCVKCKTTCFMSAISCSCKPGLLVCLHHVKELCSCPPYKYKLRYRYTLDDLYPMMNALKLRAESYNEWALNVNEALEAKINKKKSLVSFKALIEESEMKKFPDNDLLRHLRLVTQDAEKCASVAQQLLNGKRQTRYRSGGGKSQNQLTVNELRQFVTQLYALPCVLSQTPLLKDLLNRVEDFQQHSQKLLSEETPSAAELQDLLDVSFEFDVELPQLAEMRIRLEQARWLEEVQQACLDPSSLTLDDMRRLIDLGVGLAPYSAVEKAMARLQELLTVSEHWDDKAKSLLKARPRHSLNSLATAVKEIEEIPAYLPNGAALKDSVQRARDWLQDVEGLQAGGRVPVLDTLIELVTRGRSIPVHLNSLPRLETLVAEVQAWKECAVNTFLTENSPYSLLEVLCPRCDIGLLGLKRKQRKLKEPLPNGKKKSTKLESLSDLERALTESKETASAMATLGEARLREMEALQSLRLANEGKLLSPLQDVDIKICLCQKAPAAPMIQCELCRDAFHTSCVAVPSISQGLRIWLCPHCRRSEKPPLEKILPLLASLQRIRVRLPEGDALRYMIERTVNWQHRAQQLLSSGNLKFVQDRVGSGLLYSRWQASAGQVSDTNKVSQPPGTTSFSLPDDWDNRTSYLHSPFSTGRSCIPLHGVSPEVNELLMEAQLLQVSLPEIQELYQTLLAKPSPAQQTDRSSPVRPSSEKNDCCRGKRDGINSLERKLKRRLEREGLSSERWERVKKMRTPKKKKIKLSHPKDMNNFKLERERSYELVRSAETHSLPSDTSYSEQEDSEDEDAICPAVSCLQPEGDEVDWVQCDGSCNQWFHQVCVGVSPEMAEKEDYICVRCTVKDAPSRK
SMILES,Potency,"activity change, negative = inhibition"
CCOc1ccc(CCNC(=O)Cn2c(-c3cccs3)cc3ccccc32)cc1OCC,"inconclusive: 3.16 µM [inhibitor, partial curve, poor fit]",–
Cc1ccc(C)c(NC(=O)CSc2ccc3nc(-c4ccccc4)cn3n2)c1,"inconclusive: 3.98 µM [inhibitor, partial curve, poor fit]",–
COc1ccc(Nc2oc(/C=C/c3ccccc3OC)nc2C#N)cc1,"inconclusive: 28.2 µM [inhibitor, partial curve, poor fit] and inconclusive: 17.8 µM [inhibitor, partial curve, poor fit]",–
COC(=O)COc1cccc(N)c1,–,inactive: -14.2%
O=C(CSc1nc2c([nH]c3ccccc32)c(=O)n1-c1ccccc1F)Nc1cccc(C(F)(F)F)c1,"inconclusive: 28.2 µM [inhibitor, partial curve, poor fit]",–
O=C(COc1ccc2ccc(=O)oc2c1)Nc1c(Cl)cccc1C(F)(F)F,"inconclusive: 22.4 µM [inhibitor, partial curve, poor fit]",–
Cc1cc(O)c(C(C)C)cc1NC(=O)Nc1cccc2ccccc12,–,inactive: 3.22%
Cc1cc2oc(C(=O)N(Cc3ccc(N(C)C)cc3)Cc3ccco3)c(C)c2cc1Cl,"inconclusive: 1.41 µM [inhibitor, full curve, poor fit]",–
CS(=O)Cc1cccc(C(=O)Nc2nc(-c3ccccn3)cs2)c1 (centres undefined),"inconclusive: 31.6 µM [inhibitor, partial curve, poor fit]",–
Cc1ccccc1Nc1nc(N)c(C(=O)c2ccccc2Cl)s1,–,inactive: -29.4%
CC(C)CCN1CCC(N2CCN(S(=O)(=O)c3ccc4c(c3)CCCC4)CC2)C1=O (centres undefined),–,inactive: 3.61%
CCOc1ccc(-n2cc(-c3ccccc3)c3c(NC4CCCC4)ncnc32)cc1,"inconclusive: 11.2 µM [inhibitor, partial curve, poor fit]",–
Cc1ccc(C2=NC3(CCN(C(=O)c4ccc5cc[nH]c5c4)CC3)ON2)cc1,"inconclusive: 25.1 µM [inhibitor, single point]",–
Cn1cccc1CN1CCC2(CC1)CN[S+](=O)([O-])c1cccnc1O2,"inconclusive: 56.2 µM [inhibitor, partial curve, poor fit]",–
N#CCCN(C(=O)CSc1nnnn1-c1ccc(O)cc1)c1cccc(Cl)c1,–,inactive: -20.6%
CCn1c(COc2ccccc2)nnc1SCC(=O)N1CCc2ccccc2C1,–,inactive: -7.45%
CC1=C(c2ccc(C)c(C)c2)S(=O)(=O)N(Cc2ccc(C(=O)Nc3cc(F)ccc3F)cc2)C1=O,"inconclusive: 25.1 µM [inhibitor, partial curve, poor fit]",–
N#Cc1ccc(OCCOC(=O)c2ccccc2SCC2CCCO2)cc1 (centres undefined),–,inactive: -1.82%
CC(C)c1noc(-c2cn(C3CCCN(C(=O)c4cccc(F)c4)C3)nn2)n1 (centres undefined),–,inactive: 2.77%
Cc1ccc(-c2noc([C@@H]3C[C@H](NS(=O)(=O)c4ccc(Cl)cc4)CN3C)n2)cc1,"inconclusive: 31.6 µM [inhibitor, partial curve, poor fit]",–
COc1ccc(-c2cc(N3CCCC(NC(=O)Cc4ccsc4)C3)n[nH]2)cc1 (centres undefined),"inconclusive: 17.8 µM [inhibitor, single point]",–
O=C(Cn1cnc(S(=O)(=O)N2CCOCC2)c1)N1CCN(c2ccc(F)cc2)CC1,–,inactive: 13.1%
CC(C(=O)NCc1ccccc1)C1CCOCC1 (centres undefined),"inconclusive: 35.5 µM [inhibitor, partial curve, poor fit]",–

SMILES,Potency,"activity change, negative = inhibition"
NC(=S)N/N=C/c1ccc(-c2ccc(SC(F)F)cc2)o1,"inconclusive: 15.8 µM [inhibitor, partial curve, poor fit]",–
Cc1ccccc1-c1nc2cc(NC(=O)c3ccco3)ccc2o1,"inconclusive: 39.8 µM [inhibitor, single point]",–
Cc1ccc(N2CC(NC(=O)c3cccs3)CC2=O)cc1 (centres undefined),–,inactive: 14.3%
Cc1ccc(N2CCN(C(=O)c3noc(-c4ccc5c(c4)OCO5)n3)CC2)c(C)c1,"inconclusive: 35.5 µM [inhibitor, partial curve, poor fit]",–
O=C(Nc1cccc(F)c1)c1cccnc1NCc1ccccc1,"inconclusive: 39.8 µM [inhibitor, single point]",–
Cc1cccc(C(=O)NC2CCN(c3cc(-c4ccc(F)cc4)[nH]n3)C2)c1 (centres undefined),"inconclusive: 7.94 µM [inhibitor, partial curve]",–
Cc1cc(C(=O)N2CCn3nc(C(=O)Nc4ccccc4)cc3C2)cc(=O)[nH]1,"inconclusive: 31.6 µM [inhibitor, partial curve, poor fit]",–
Cc1nc(C)c(C(=O)N2CCC(Cc3nc(-c4ccccc4)n[nH]3)CC2)s1,–,inactive: -20.3%
N#CC1(NC(=O)CSC2=Nc3ccccc3CS2)CCCCC1,–,inactive: 35.3%
COc1cccc(CN2CCC([C@H]3[C@@H](OC)C(=O)N3C(C)C)CC2)n1,"inconclusive: 28.2 µM [inhibitor, partial curve]",–
Nc1nccnc1C(=O)NCCc1ccc(Cl)cc1,"inconclusive: 25.1 µM [inhibitor, partial curve, poor fit]",–
Cc1ccccc1CN1C(=O)c2ccccc2Sc2ccc(C(=O)NCCc3ccccc3)cc21,–,inconclusive: -32.8% [inhibitor]
CCNC(=O)[C@@H]1CCCN1C1(C(=O)NC)CCCCC1,"inconclusive: 35.5 µM [inhibitor, partial curve, poor fit]",–
CN(Cc1ccccc1)c1nc(-c2cccnc2)nc2ccccc12,–,inactive: 0.016%
Cc1cn2nc(C(=O)N3CCC(NC(=O)COc4ccc(F)cc4)CC3)cc2c(=O)[nH]1,"inconclusive: 14.1 µM [inhibitor, partial curve]",–
Cc1nnc(NC(=O)CCc2ccc(-c3ccccc3)o2)s1,–,inactive: -6.66%
COc1ccc(OC)c(-n2c(-c3ccc(F)cc3)cn3c4c(=O)[nH]c(=O)n(C)c4nc23)c1,–,inactive: -16.1%
CCC(CC)COC(=O)C(C#N)c1nc2ccccc2nc1N1CCN(C)CC1 (centres undefined),–,inactive: -29.6%
COc1ccc(-c2cnc(Nc3ccccc3)c3c2CCO3)cn1,active: 39.8 µM,–
Cc1cccc(Nc2sc(C(=O)c3ccc(Cl)cc3)c(N)c2C(N)=O)c1,"inconclusive: 17.8 µM [inhibitor, partial curve, poor fit]",–
COc1ccc(NC(=O)c2cc(-c3ccccc3F)no2)cc1,"inconclusive: 14.1 µM [inhibitor, partial curve, poor fit]",–
O=C(O)c1cc(F)c(F)cc1Cl,–,inactive: 20.6%
O=C(Nc1nc2cc3c(cc2s1)OCCCO3)c1cccc(Cl)c1,"inconclusive: 22.4 µM [inhibitor, partial curve, poor fit]",–

SMILES,Potency,"activity change, negative = inhibition"
O=C(Cc1ccc(F)cc1)NC1CCN(c2cc(-c3ccc(Cl)cc3)[nH]n2)CC1,–,inactive: -21.9%
Cc1cccc(NC(=O)CCc2c[nH]c3ccccc23)c1,–,inactive: -7.68%
Cc1cc(-c2cc3c(n(Cc4cccnc4)c2=O)CCN(C(=O)CCc2ccccc2)C3)ccc1F,active: 25.1 µM,–
Cc1cccc(C(=O)N2CCC(Oc3ccccc3-c3nc(C)no3)C2)c1 (centres undefined),"inconclusive: 17.8 µM [inhibitor, partial curve]",–
c1csc(-c2cc3ccccn3c2)c1,"inconclusive: 39.8 µM [inhibitor, single point]",–
CCOC(=O)C1CCN(C(=O)CCN(CC)C(=O)c2cc(C)oc2C)CC1,"inconclusive: 31.6 µM [inhibitor, single point]",–
COc1ccc(Cl)cc1C(=O)Nc1nc2ccccc2[nH]1,"inconclusive: 31.6 µM [inhibitor, partial curve, poor fit]",–
CCn1nc(C(=O)N2CCN(S(=O)(=O)c3ccc(C(C)(C)C)cc3)CC2)c2ccccc2c1=O,–,inactive: -4.03%
COc1ccc(CN[C@H]2[C@H](O)[C@H](O)C[C@@H]2c2ccc(C(F)(F)F)nc2)cc1,–,inactive: -20.4% [at 86.2 µM]
O=[N+]([O-])c1cccc(/C=N/O)c1,–,inactive: 5.86%
CN(C)CCN(Cc1ccc(F)cc1)C(=O)Nc1cccc2ccccc12,"inconclusive: 17.8 µM [inhibitor, partial curve, poor fit]",–
O=C(Nc1ccc(C(F)(F)F)cc1)c1ccc(N2C(=O)CCS2(=O)=O)cc1,"inconclusive: 39.8 µM [inhibitor, single point]",–
Cn1ccc(C(=O)NCc2nnc3n2C(C(=O)NCc2ccc(F)cc2)CC3)n1 (centres undefined),–,inactive: 0.645% [at 115 µM]
CNC(=O)[C@@H]1C[C@@H](n2cc(CN(C)C(=O)c3cccc(F)c3F)nn2)CN1,"inconclusive: 15.8 µM [inhibitor, partial curve, poor fit]",–
CN(C)C(=O)c1ccc(N2CC3CC(C2)[C@H]2CCCC(=O)N2C3)nc1 (some centres undefined),"inconclusive: 28.2 µM [inhibitor, single point]",–
Cc1nn2c(nnc3c(=O)n(-c4ccccc4)ccc32)c1-c1ccccc1,–,inactive: 4.43%
O=C1CC(c2noc(-c3ccc4c(c3)OCO4)n2)CN1c1ccc(F)cc1 (centres undefined),active: 28.2 µM,–
COc1cc2ccccc2cc1C(=O)Nc1cccc2ncccc12,"inconclusive: 28.2 µM [inhibitor, partial curve, poor fit]",–
Cc1[nH]c2ccccc2c1C(=O)N1CCN(S(=O)(=O)c2cc(F)ccc2F)CC1,–,inactive: 6.17%
Cc1cc(C)cc(OCCSc2nc3ccc(NC(=O)COc4ccccc4)cc3s2)c1,–,inconclusive: -30.7% [inhibitor]
CSCC[C@@H]1NC(=O)c2cc(NC(=O)c3n[nH]c4c3CCCC4)ccc2NC1=O,"inconclusive: 22.4 µM [inhibitor, single point]",–
c1ccc(CCCNc2nccc(-c3ccccn3)n2)nc1,active: 28.2 µM,–
COc1ccc(-c2nnc(SCCOc3ccccc3C)o2)cc1OC,"inconclusive: 35.5 µM [inhibitor, partial curve, poor fit]",–

# — PubChem BioAssay AID1347165 (National Center for Advancing Translational Sciences (NCATS), 2019)
